# This is one part of the list. Sequences were assembled here from the parent chain. Values near 0.05 are background.
# B1: TEV protease; numbered along this chain (parent)
# chain: MGESLFKGPRDYNPISSSICHLTNESDGHTTSLYGIGFGPFIITNKHLFRRNNGTLVVQSLHGVFKVKDTTTLQQHLVDGRDMIIIRMPKDFPPFPQKLKFREPQREERICLVTTNFQTKSMSSMVSDTSCTFPSGDGIFWKHWIQTKDGQCGSPLVSTRDGFIVGIHSASNFTNTNNYFTSVPKNFMELLTNQEAQQWVSGWRLNADSVLWGGHKVFMVKPEEPFQPVKEATQL
# Variants of: B1
# Assay: raw area under fraction-flipped curve 0-4 h after induction (AUC4h, not background-subtracted), DNA-recorder readout of cleavage of the substrate (dimensionless); higher = more cleavage of the substrate by the protease variant
# Details: temperature: 34 °C; time window: 0-4 h after rhamnose induction
# Protocol: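 In vivo DNA recorder in E. coli TOP10(DE3) ΔrhaA at 34 °C. Each TEVp single-site mutant (parent TEVp 0) is paired with a single-site variant of the 7-mer TEVs (canonical ENLYFQ|S). The substrate sits between flexible linkers in a Bxb1-sfGFP-TEVs-SsrA fusion, so cleavage stabilises Bxb1 and speeds flipping of a recombination array, read by NGS. The value is the raw area under the fraction-flipped curve over 0-4 h after rhamnose induction (AUC4h), with ≥20 reads per time point. It is not background-subtracted; inactive controls average about 0.047.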
# 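Also: Bxb1 expression induced with 0.2% (w/v) L-rhamnose at OD600 near 0.5, cultures sampled hourly, flipped fraction per protease–substrate barcode pair counted by paired-end Illumina sequencing.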
Variant,area with substrate ECLYFQS,area with substrate EKLYFQS,area with substrate EMLYFQS,area with substrate EQLYFQS,area with substrate ERLYFQS,area with substrate ESLYFQS,area with substrate ETLYFQS,area with substrate EVLYFQS,area with substrate EWLYFQS,area with substrate EYLYFQS,area with substrate EDLYFQS,area with substrate EELYFQS,area with substrate EFLYFQS,area with substrate EGLYFQS,area with substrate EPLYFQS,area with substrate EILYFQS,area with substrate ELLYFQS,area with substrate EHLYFQS
P104A,0.105,0.131,0.097,0.104,0.0785,0.103,0.0988,0.0792,0.0926,0.0986,–,–,–,–,–,–,–,–
P104S,0.0561,–,–,0.0532,0.0733,0.0598,0.064,0.0484,–,0.0611,0.0571,0.0714,0.062,0.0451,0.0593,–,–,–
P104N,0.041,0.0304,0.0391,0.0992,0.0513,–,–,–,–,–,0.0499,–,–,–,0.0473,0.04,0.052,–
T119E,0.0761,–,0.152,–,0.118,–,–,0.13,–,–,0.109,0.137,–,0.111,–,–,–,0.112
P228F,0.078,–,–,–,–,0.0924,0.0913,0.0769,–,–,0.121,–,–,–,0.0975,0.0974,0.0893,0.0885
V64H,–,–,–,–,–,0.131,–,–,–,–,0.102,–,–,–,–,–,–,–
R160C,0.0977,0.103,0.175,0.115,0.124,0.102,0.111,0.182,0.0478,–,0.0837,0.134,–,–,0.12,0.094,0.0874,–
R160T,0.127,–,–,0.109,0.173,0.193,–,–,–,–,0.142,0.139,0.115,–,0.101,–,–,–
R160G,0.117,0.132,0.117,0.118,0.106,0.0866,0.0943,0.0993,–,0.114,0.114,0.122,–,0.112,0.122,0.0983,–,0.121
V165N,0.0576,–,–,0.0588,0.0357,–,–,–,–,–,0.0439,–,–,–,–,–,0.0782,0.051
L235H,0.0993,–,0.109,–,–,0.106,–,–,–,0.0291,–,0.15,–,–,–,0.0974,0.111,–
E189K,0.123,–,–,0.147,–,0.101,0.0921,0.126,–,0.123,–,0.0996,–,–,–,–,–,–
S130R,–,0.0893,0.0827,–,0.0864,0.071,–,–,0.0789,–,0.117,0.124,–,0.0827,–,0.064,0.0693,–
P184E,0.065,–,0.0881,0.0691,0.0744,0.0717,–,0.0686,–,–,–,–,0.0967,0.078,0.0569,0.067,–,0.0653
P184Y,0.0651,0.0532,–,0.0532,–,0.0714,–,–,–,0.0732,–,–,0.0614,0.058,0.065,0.0544,–,0.0565
R106P,0.0901,0.114,–,0.108,–,0.12,0.113,0.0797,0.0897,–,0.12,0.0828,–,0.111,0.134,0.0993,0.103,0.0852
F101N,–,–,0.029,0.0474,0.0469,0.0437,–,0.0415,–,–,0.0455,–,–,0.0609,–,–,–,–

Variant,area with substrate ECLYFQS,area with substrate EKLYFQS,area with substrate EMLYFQS,area with substrate EQLYFQS,area with substrate ERLYFQS,area with substrate ESLYFQS,area with substrate ETLYFQS,area with substrate EVLYFQS,area with substrate EWLYFQS,area with substrate EYLYFQS,area with substrate EDLYFQS,area with substrate EELYFQS,area with substrate EFLYFQS,area with substrate EGLYFQS,area with substrate EPLYFQS,area with substrate EILYFQS,area with substrate ELLYFQS,area with substrate EHLYFQS
F101W,0.109,–,0.106,0.0989,0.118,0.118,0.118,0.107,–,0.113,0.135,0.163,–,–,0.132,0.107,–,–
D208I,0.0605,0.0454,0.0781,0.0982,0.0588,0.0678,0.0703,0.0585,0.0916,0.0722,0.0722,0.0756,–,0.078,0.0709,0.0501,0.0687,0.0829
D208R,0.0672,0.0813,–,0.0837,0.0571,0.0933,0.0886,0.0635,0.0599,–,0.0749,0.0789,–,0.0683,0.0932,0.076,0.0776,–
D208L,0.0626,–,–,0.092,–,–,–,0.0601,–,–,0.0639,–,–,0.0581,–,–,–,–
D208F,0.068,0.0401,–,–,0.056,0.0797,0.0745,0.069,–,0.0876,–,–,–,–,0.0753,0.0632,–,0.0645
Q74S,–,0.0887,0.0552,0.124,0.122,0.11,0.121,0.0829,0.0949,–,0.133,0.0695,0.0968,–,–,0.0673,–,–
F133G,0.0802,–,0.0957,–,–,0.0865,0.0368,0.111,0.0897,–,0.121,0.0591,0.0637,0.102,0.0632,0.111,–,0.113
V200Y,0.0666,–,–,0.0449,0.0537,0.0761,0.0693,0.0592,–,0.0496,0.0462,–,0.0652,0.0512,–,0.0619,–,–
V200G,0.0294,–,–,–,–,0.0735,–,0.0808,0.0567,–,–,–,–,–,–,–,–,–
V200Q,–,–,–,–,–,–,–,0.0957,–,–,0.123,–,–,0.0727,–,0.09,–,–
V200K,–,–,0.0958,0.0771,0.0838,0.0796,–,–,–,–,0.0775,–,0.0572,–,–,0.0752,–,–
T192R,0.13,0.124,0.09,0.0995,0.0573,0.0976,0.11,0.108,0.0619,0.105,0.142,0.113,–,0.0883,0.0953,0.114,0.0945,0.0996
T192K,0.0853,0.0925,0.104,0.101,0.0951,0.0917,–,–,0.0789,–,0.0935,0.103,–,0.08,0.0849,0.0836,0.0779,–
V183K,0.0502,0.0286,–,0.0517,–,0.06,–,0.0366,0.0427,–,0.04,0.0743,–,–,–,0.065,0.0585,–
E223Q,0.13,0.122,–,0.102,0.122,0.108,–,0.0812,–,0.0761,0.162,0.108,–,–,–,0.0812,–,–
M219F,0.129,0.0964,–,0.134,0.118,0.116,0.112,0.123,0.116,–,–,0.122,0.141,0.116,–,–,0.094,–
D149R,0.0951,–,–,–,0.096,0.13,–,–,–,–,–,–,–,–,–,0.0832,–,0.121

# — the supplement of paper PMC12217912
